Experimental findings from the supplement of paper PMC3334620 are described below.

In all, about 33,000 sequences were measured (“E-score (-0.5 to 0.5)”: median about -0.035, highest 2% from about 0.35 on). The list shows a part of the results.

This assay concerns the target T1, Pdr3 (UniProt P33200).
T1 sequence: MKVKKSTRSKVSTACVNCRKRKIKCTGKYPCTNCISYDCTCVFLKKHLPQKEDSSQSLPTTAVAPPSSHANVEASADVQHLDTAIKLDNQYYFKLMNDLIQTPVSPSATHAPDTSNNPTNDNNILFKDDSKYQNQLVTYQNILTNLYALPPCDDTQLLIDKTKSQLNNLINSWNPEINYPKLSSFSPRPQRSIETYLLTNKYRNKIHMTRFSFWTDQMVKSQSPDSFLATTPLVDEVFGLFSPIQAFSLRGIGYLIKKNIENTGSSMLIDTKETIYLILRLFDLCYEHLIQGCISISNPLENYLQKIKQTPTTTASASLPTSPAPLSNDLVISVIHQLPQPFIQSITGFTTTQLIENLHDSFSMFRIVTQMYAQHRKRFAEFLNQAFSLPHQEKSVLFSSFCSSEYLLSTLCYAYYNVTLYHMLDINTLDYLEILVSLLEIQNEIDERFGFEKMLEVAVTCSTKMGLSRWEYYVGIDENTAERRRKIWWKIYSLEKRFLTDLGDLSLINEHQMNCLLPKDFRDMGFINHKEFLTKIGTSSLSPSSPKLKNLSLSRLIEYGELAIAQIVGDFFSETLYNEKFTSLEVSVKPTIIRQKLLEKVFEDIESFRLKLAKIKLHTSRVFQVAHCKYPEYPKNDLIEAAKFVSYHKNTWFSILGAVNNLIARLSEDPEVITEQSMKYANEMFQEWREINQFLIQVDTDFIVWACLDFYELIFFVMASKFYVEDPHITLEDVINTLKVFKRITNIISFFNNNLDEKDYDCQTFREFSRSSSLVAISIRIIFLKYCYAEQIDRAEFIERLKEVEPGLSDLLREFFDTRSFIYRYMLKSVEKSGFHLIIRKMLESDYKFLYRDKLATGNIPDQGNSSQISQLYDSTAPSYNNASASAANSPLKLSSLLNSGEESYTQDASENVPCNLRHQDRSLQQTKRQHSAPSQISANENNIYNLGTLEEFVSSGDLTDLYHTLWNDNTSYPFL
Nature of the assay: PBM E-score (8-mer binding enrichment) (E-score (-0.5 to 0.5)); higher = stronger / more preferred TF binding; most listed sequences are background and not binding sites. As to conditions: protein concentration: 200 nM; construct: GST-full length. In a few lines:
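Full-length yeast transcription factors or their DNA-binding domains, GST-tagged and expressed with PURExpress, were applied at about 100-200 nM to universal all-10-mer Agilent arrays. These arrays had been made double-stranded by primer extension on fresh or once-stripped slides. Detection used fluorescent anti-GST, normalisation used masliner, and E-scores for ungapped eight-base words pooled with reverse complements came from the Universal PBM Analysis Suite.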
Take GATAGGTA: the “PBM E-score” value is -0.00733.

Take GCTCGCGA: the “PBM E-score” value is 0.188.

For the sequence TACTAGCA, the “PBM E-score” value was -0.0209.

With AGTGTTTG, the “PBM E-score” value is -0.04.

Regarding TCCAGTAA, the “PBM E-score” value is -0.156.

CCCACGAA: the “PBM E-score” value stood at 0.0513.

Regarding CTTAGGAC, the “PBM E-score” value was -0.202.

Consider ACGAATCG, for which the “PBM E-score” value was 0.0649.

On to CGGTTGCA, for which the “PBM E-score” value was -0.0738.

As to CGGAGCCG, the “PBM E-score” value came out at 0.369.

On to GATACAGA, for which the “PBM E-score” value came out at 0.00655.

Turning to AGCGAACG, the “PBM E-score” value was -0.134.

Regarding ATTTCGCC, the “PBM E-score” value came out at 0.175.

Turning to CGTTTCTA, the “PBM E-score” value is -0.152.

In the case of ATCATGAG, the “PBM E-score” value is -0.262.

Turning to GATACCTA, the “PBM E-score” value amounted to 0.0415.

For AGCTACAC, the “PBM E-score” value was -0.121.

Regarding CGGCTGAC, the “PBM E-score” value turned out to be 0.231.

For CTTCTCGC, the “PBM E-score” value amounted to 0.0476.

With CGCGCGAC, the “PBM E-score” value turned out to be 0.239.

For the sequence TCCGAACA, the “PBM E-score” value is 0.314.

Consider AAAGGGGA, for which the “PBM E-score” value is -0.0513.

For the sequence ACACTGTG, the “PBM E-score” value was 0.0268.

As for ACACGCAC, the “PBM E-score” value was -0.0668.

Turning to AGTGACCA, the “PBM E-score” value was -0.00406.

For GGCGCGAA, the “PBM E-score” value worked out at 0.106.

Consider GTGAACAC, for which the “PBM E-score” value is -0.094.

On to ATATATTA, for which the “PBM E-score” value was found to be 0.117.

In the case of TCTTAGCA, the “PBM E-score” value is -0.215.

Turning to AGTAAGTG, the “PBM E-score” value was -0.145.

With CACGCAAC, the “PBM E-score” value was found to be 0.0106.

Take AACACCTA: the “PBM E-score” value is -0.269.

As for ACGGTCAC, the “PBM E-score” value is -0.0325.

Take CCCATGCC: the “PBM E-score” value is 0.0609.

For the sequence CAGCAGCC, the “PBM E-score” value was -0.0725.

On to CGTACCAC, for which the “PBM E-score” value was -0.102.

On to GCTACCCC, for which the “PBM E-score” value is -0.147.

Turning to CAGAAGGG, the “PBM E-score” value is -0.181.

As for GACACACA, the “PBM E-score” value is -0.0609.

Turning to ATCCGCCC, the “PBM E-score” value was determined as 0.251.

On to ACGCCACG, for which the “PBM E-score” value was -0.181.

For CCGCCAGA, the “PBM E-score” value was 0.179.

Consider CCCAGGCA, for which the “PBM E-score” value is -0.0845.

In the case of AGACGTAC, the “PBM E-score” value is -0.0286.

Take AACCTCTC: the “PBM E-score” value was -0.0481.

As to AACGGCCG, the “PBM E-score” value was determined as 0.344.

Regarding CGATACTC, the “PBM E-score” value came out at 0.0572.

With CCGTGAGG, the “PBM E-score” value is 0.0332.

For TCGTTAGA, the “PBM E-score” value was -0.24.

For the sequence CTGTTGGC, the “PBM E-score” value is -0.0902.

For the sequence AGTTCTAT, the “PBM E-score” value is -0.128.

ATGCGGAG: the “PBM E-score” value came to 0.0777.

Regarding ACAACATG, the “PBM E-score” value is -0.0382.

ACGAGTGA: the “PBM E-score” value was -0.0922.

Turning to ACACCTAT, the “PBM E-score” value was -0.0637.

As for TGTTAGAA, the “PBM E-score” value is -0.264.

On to GTAACTTA, for which the “PBM E-score” value is -0.121.

As for GGTTTCAC, the “PBM E-score” value was -0.0885.

On to GGCTGGGA, for which the “PBM E-score” value was -0.0695.

For GCCTCTCA, the “PBM E-score” value was 0.0327.

With CATCCCGA, the “PBM E-score” value was 0.352.

GTATAAAA: the “PBM E-score” value came to 0.203.

Turning to ACATGGGA, the “PBM E-score” value was 0.108.

In the case of GGCTTGTA, the “PBM E-score” value was -0.195.

As to ATTCCTGG, the “PBM E-score” value was determined as 0.0168.

For the sequence GCGGCCAA, the “PBM E-score” value stood at 0.152.

Consider GAAGGGGA, for which the “PBM E-score” value is -0.0259.

For the sequence ATTACTAG, the “PBM E-score” value was -0.099.

As to GACCGGTC, the “PBM E-score” value is 0.273.

GTATGTAA: the “PBM E-score” value was -0.0924.

As to GACCTTCC, the “PBM E-score” value turned out to be 0.0988.

Consider CACAATTA, for which the “PBM E-score” value was -0.149.

ACACGGAC: the “PBM E-score” value was determined as 0.299.

CCCGTAAA: the “PBM E-score” value was 0.0769.

As to AGGCTCCA, the “PBM E-score” value is -0.238.

For the sequence CATATTAG, the “PBM E-score” value was -0.0529.

For GATAAGCC, the “PBM E-score” value is 0.0243.

Regarding CCGCTCCA, the “PBM E-score” value stood at 0.0975.

Regarding ACCCACCG, the “PBM E-score” value was found to be 0.0215.

As for CACGCGTG, the “PBM E-score” value is 0.283.

For the sequence CCGATCAG, the “PBM E-score” value was 0.174.

Regarding TACCCAGA, the “PBM E-score” value is -0.034.

CGTAGTTA: the “PBM E-score” value is -0.047.

ATCGGGAA: the “PBM E-score” value amounted to 0.279.

As to CCCCGTTC, the “PBM E-score” value was 0.223.

In the case of AACCGTAC, the “PBM E-score” value was -0.141.

ACGTTAAT: the “PBM E-score” value was determined as 0.077.

Turning to CACCGAAC, the “PBM E-score” value is -0.0653.

For the sequence GTAATCAC, the “PBM E-score” value was -0.0461.

With AGCGCACA, the “PBM E-score” value turned out to be 0.0317.

TACAGCCA: the “PBM E-score” value was -0.0432.

For the sequence TTCCACAA, the “PBM E-score” value came to 0.105.

Regarding CGTAATAA, the “PBM E-score” value is -0.142.

For ACGAGGAC, the “PBM E-score” value is -0.0685.

On to CGCACTAA, for which the “PBM E-score” value is 0.137.

For the sequence CGTATCGC, the “PBM E-score” value was 0.107.

As to ATCGAAGA, the “PBM E-score” value came out at 0.0471.

GCCCCCAC: the “PBM E-score” value is -0.175.

In the case of CTCCTCTC, the “PBM E-score” value was -0.136.

On to AAGGGAAT, for which the “PBM E-score” value was -0.181.

As for ACTGACAC, the “PBM E-score” value is -0.00126.

Turning to ATTCCACC, the “PBM E-score” value was determined as 0.205.

Take GAGCCGAA: the “PBM E-score” value was 0.228.

CCTCAAGG: the “PBM E-score” value is -0.147.

Regarding TGGCGTAA, the “PBM E-score” value was -0.263.

Turning to CAAGGCAG, the “PBM E-score” value was -0.148.

As to AGGCGTGA, the “PBM E-score” value is -0.279.

Regarding ATGCAGGC, the “PBM E-score” value is -0.0231.

For the sequence CGATCCAC, the “PBM E-score” value was -0.0459.
